Source: the RNAGym collection of RNA variant scans (doi:10.7554/elife.90254)
Read counts are not given, so values of variants with three or more changes are uncertain.

B1: OR4K15 (parent)
chain: GUUAACGGUCAUAGGCCAUGGAAACUAGGAGCACCAUUUCGCUGCCAGUGAAGAAAUGAACAAAGAAAAUCUGGGCCAGGCAGGCAUCAAAAGAAAUAGUCUUGCGCUCAACCAGAAAGUCUGUAAUCAUUUUAAGGGUA

Variants of: B1
Experiment: self-cleavage, relative activity (ratio to wild type); higher = more cleavage; in vitro, sequencing; the parent is a self-cleaving ribozyme

Variant | self-cleavage
GUUAACGGUCAUAGGCCAUGGAAACUAGGAGCACCAUUUCGCUGCCAGUGAAUAAAUGAACAAAGAAAAUCUGGGCCAGGCAGGCAUCGAAAGAAAUAGUCUUGCGCUCAACCAGAUAGUCUGUAAUCAUUUUAAGGGUA [G53U A89G A117U] | 1.62
GUUAACGGUCAUAGGCCAUGGAAACUAGGAGCACAAUUUCGCCGCCGGUGAAGAAAUGAACAAAGAAAAUCUGGGCCAGGCAGGCAUCAAAAGAAAUAGUCUUGCGCUCAACCAGAAAGUCUGUAAUCAUUUUAAGGGUA [C35A U43C A47G] | 0.57
GCUAACGGUCAUAGGCCAUGGAAACUAGGAGCACCAUCUCGCUGCCAGUGAAGAAGUGAACAAAGAAAAUCUGGGCCAGGCAGGCAUCAGAAGAAAUAGUCUUGCGCUCAACCAGAAAGUCUGUAAUCAUUUUAAGGGUA [U2C U38C A56G A90G] | 1.42
GUUAACGGUCAUAGGCCAUGGAAACUAGGAGCACCAUUUCGCUGCCAGUGAAGAAGUGAACAAAGAAAAUCUGGGCCAGGCAGGCAUCAAAAGAAAUAGUCUUGCGCUCAACCAGAAAGUCUGUAACCAUUUUAAGGGUC [A56G U127C A140C] | 1.24
GUUAACGGUCGUAGGCCAUGGAAACUAGGAGCACCAUUUCGCUGCCAGUGAAGAAAUGAACAAAGAAUAUCUGGGCCAGGCAGGCAUAAAAAGAAAUAGUCUUGCGCUCAACCAGAAAGUCUGUAAUCACUUUAAGGGUA [A11G A68U C88A U130C] | 0.96
GUUAACGGUCAUAGGCCAUGGAAACUAGGAGCACCAUUUCGCUGCCAGUGAAGAAGUGAACAAAGAAAAUCUGGGCCAGGCAGGCAUCAAAAGAAAUAGCCUUGCGCUCAACCAGAAAGUCUGUGAUCAUUUUAAGGGUA [A56G U100C A125G] | 1.26
GCUAACGGUCAUAGGCCAUGGAAACUAGGAGCGCCAUUUCGCUGCCAGUGAAGAAAUGAACAAGGAAAAUCUGGGCCAGGCAGGCAUCAAAAGAAAUAGUCUUGCGCUCAACCAGAAAGUCUGUAAUCAUUUUAAGGGUA [U2C A33G A64G] | 0.73
GUUAACGGCCAUAGGCCAUGGAAACUAGGAGCACCACUUCGCUGCCAGUGAAGAAAUGAACAAAGAAAAUCUGGGCCAGGCAGGCAUCAAAAGAAAUAGUCUUGCGCUCAACCAGUAAGUCUGUAAUCAUUUUAAGGGUA [U9C U37C A116U] | 0.43
GUUAACGGUCAUAGGCCAUGGAAACUAGGAGCACCAUUUCGCUGCCAGUGAAGAGAUGAACAAAGAAAAUCUGGGCCAGGCAGGCAUCAAAAGAAAUAGUCUUGCGCUCAACCAGAAAGUCUGUAAUCGUUCUAAGGGUA [A55G A129G U132C] | 1.67
GUUAACGGUCAUAGGCCAUGGAACCUAGGAGCACCAUUUCGCUGCCAGUGAGGAAAUGAACAAAGAAAAUCUGGGCCAGGCAGGCAUCAAAAGAAAUAGUCUUGCGCUCAACCAGAAAGUCUGUAAUCAUUCUAAGGGUA [A24C A52G U132C] | 1.23
GUUAACGGUCAUAGGCCAUGGAAACUAGGAGCACCUUUUCGCUGCCAGUGGAGAAAUGAACAAAGAAAAUCUGGGCCAGGCAGGCAUCAAAAGAAAUAGUCUUGCGCUCAACCGGAAGGUCUGUAAUCAUUUUAAGGGUA [A36U A51G A114G A118G] | 0.33
GUUAACGGUCGUAGGCCAUGGAAACUAGGAGCACCAUUUCGCCGCCAGUGAAGAAAUGAACGAAGAAAAUCUGGGCCAGGCAGGCAUCAAAAGAAGUAGUCUUGCGCUCAACCAGAAAGUCUGUAAUCAUUUUAAGGGUA [A11G U43C A62G A96G] | 0.42
GUUAACGGUCAUAGGCCUUGGUAACUAGGAGCACCAUCUCGCUGCCAGUGAAGAAAUGAACAAAGAAAAUCUGGGCCAGGCAGGCAUCAAAAGAAAUAGUCUUGCGCUCAACCAGAAAGUCUGUAAUCAUUUUAAGGGUA [A18U A22U U38C] | 1.48
GUUAACGGUCAUAGGCCAUGGAAACUAGGAGCACCAUCCCGCUGCCAGUGAAGAGAUGAACAAAGAAAAUCUGGGCCAGGCAGGCAUCAAAAGAAAUAGUCUUGCGCUCAACCAGAAAGUCUGUAAUCAUUUCAAGGGUA [U38C U39C A55G U133C] | 1.53
GUUAACGGUCAUAGGCCAUGGAAACUAGGAGCACCAUUUCGCUGCCAGUGAAGAAGUGAACAAAGAAAAUCUGGGCCAGGCAGGCAUCAAAAGAAAUAGUCUUGCGCUCAACCAGAAGGUCUGAAAUCAUAUUAAGGGUA [A56G A118G U124A U131A] | 0.18
GUUAACGGUCAUAGGCCAUGGAAACUAGGAGCACCAUUUCGCUGCCGGCGAAGAAAUGAACAAAGAAAAUCUGGGCCAGGCGGGCAUCAAAAGAAAUAGUCUCGCGCUCAACCAGAAAGUCCGUAAUCAUUUUAAGGGUA [A47G U49C A82G U103C U122C] | 1.57
GUUAACGGUCAUAGGCCAUGGGAACUCGGAGCACCAUUUCGCUGCCAGUGAAGAAAUGAACAAAGAAAAUCUGGGCCAGGCAGGCAUCAAAAGAAAUAGUCUUGCGCUCAACCAGAAAGUCUGUAAUCAUUUUAGGGGUA [A22G A27C A135G] | 1.7
GUUAACGGUCAUAGGCCAUGGAAACUAGGAGCGCCAUUUCGCUGCCAGUGAAGAAAUGAACAAAGAAAAUCUGGGCCAGGCAGGCACCAAAAGGAAUAGUCUUGCGCUCAACCAGAAAGUCUGUAAUCAUUUUAAGGGUA [A33G U87C A94G] | 0.9
GUUAGCGGUCAUAGGCCAUGGAAACUAGGAGCACCAUUUCGCCGCCAGUGAAGAAAUGAACAAAGAAAAUCUGGGCCAGGCAGGCAUCAAAAGAAAUAGUCCUGCGCUCAACCAGAAAGUCUGUAAUCAUUUUAAGGGUA [A5G U43C U102C] | 1.83
GUUAACGGUCAUAGGCCAUGGAAGCUAGGAGCACCAUUUCGCUGCCAGUGAAGAAAUGAACAAAGAAAAUCUGGGCCAGGCAGGCAUCAAAAGGAAUAGUCUCGCGCUCAACCAGAGAGUCUGUAAUCAUUUUAAGGGUA [A24G A94G U103C A117G] | 0.32
GUUAACGGUCAUAGGCCAUGGAAACUAGGAGCACCAUUUCGCUGCCAGUGAAGAAAUGAACAAAGAGAAUCUGGGCCAGGCAGGCAUCAAAAGGAAUAGUCUUGCGCUCAACCAGAAGGUCCGUAAUCAUUUUAAGGGUA [A67G A94G A118G U122C] | 0.71

Variant | self-cleavage
GUUAACGGUCAUAGGCCAUGGGAACUAGGAGCACCAUUUCGCUGCCAGUGAAGAAAUGAACAAAGAAAAUCUGGGCCAGGCAGGCAUCAAAAGAAAUAGUCUUGCGCUCAACCAGAAGGUCUGUAACCAUAUUAAGGGUA [A22G A118G U127C U131A] | 0.09
GUUAACGGUCAUAGGCCAUGGAUCCUAGGAGCACCAUUUCGCUGCCAGUGAAGAAAUGAACAAGGAAAAUCUGGGCCAGGCAGGCAUCAAAAGAAAUAGUCUUGCGCUCAACCAGAAAGUCUGUAAUCAUUUUAAGGGUA [A23U A24C A64G] | 0.67
GUUAACGGUCGUAGGCCAUGGAAACUAGGAGCACCUUUUCGCUGCCAGUGAAGAAAUGAACAAAGAAAAUCUGGGCCAGGCAGGCAUCAAAAGAUAUAGUCUUGCGCUCAGCCAGAGAGUCUGUAAUCAUUUUAAGGGUA [A11G A36U A95U A111G A117G] | 0.01
GUUAACGUUCAUAGGCCAUGGAAACUAGGAGCACCAUUUCGCUGCCAGUGAAGAAAUGAACAAAGAAAAUCCGGGCCAGGCAGGCAUCAAAAGAAAUAGUCUUGCGCUCAACCAGAAAGUCUGUAAUCAUUCUAAGGGUA [G8U U72C U132C] | 0.25
GUUAACGGUCAUAGGCCAUGGAAACUAGGAGCACCAUUUCGCUGCCAGUGAAGAAAUGAACAAAGAAAAUCUGGGCCAGGCAGGCACCAGAAGAAAUAGUCUUGCGCUCAACCAGAAAGUCUGUAAUCAUCCUAAGGGUA [U87C A90G U131C U132C] | 0.19
GUUAACGGUCAUAGGCCAUGGAAACUAGGGGCACCAUUUCGCUGCCAGUGAAGAAAUGAACAAAGAAAGCCUGGGCCAGGCGGGCAUCAAAAGAAAUAGUCAUGCGCUCAACCAGAGAGUCUGUAAUCAUUUUAAGGGUA [A30G A69G U70C A82G U102A A117G] | 0.09
GUUAACGGUCAUAGGCCAUGGAAACUAGGAGCACCAUUUCGCUGCCAGUGAAGUAAUGAACAAGGAAAAUCUGGGCCAGGCAGGCAUCAAAAGAAAUAGUCUUGCGCCCAACCAGAAAGUCUGUAAUCAUUUUAAGGGUA [A54U A64G U108C] | 0.04
GUUAACGGUCAUAGGCCAUGGAAACUAGGAGCACCAUUUCGCUGCCAGUGAAGAAGUGAACAAAGAAAAUCUGGGCCAGGCAGGCAUCAAAAGAGAUAGUCUUGCGCUCAGCCAGAAAGUCUGUAAUCAUUUUAAGGGUA [A56G A95G A111G] | 0.02
GUUAACGGUCAUAGGCCAUGGAAACUAGGAGCACCAUUUCGCUGCCAGUGAAGGAAUGAACAAAGAAAAUCUGGGCCAGGCAGGCUUCAAAAGAAAUAGUCUUGCGCUCAACCAGAGAGUCUGUAAUCAUUUUAAGGGUA [A54G A86U A117G] | 2.84
GUUAACGGUCAUAGGCCAUGGAAACUGGGAGCACCAUUUCGCUGCCAGUGAAGAAAUGAACAAAGAAAAUCUGGGCCAGGCAGGGAUCGAAAGAAAUAGUCUUGCGCCCAACCAGAAAGUCUGUAAUCAUUUUAAGGGUA [A27G C85G A89G U108C] | 0.05
GUUAACGGUCAUAGGCCAUGGAAACUAGGAGCACCAUUUCGCUGCCAGUGCAGAAAUGAACAAAGAAAAUCUGGGCCAGGCAGGCAUCAAAGGAAAUAGUCUUGCGCUCAACCGGAAAGUCUGUAAUCAUUUUAAGGGUA [A51C A92G A114G] | 0.25
GUUAACGGUCAUAGGCCAUGGAGACUAGGAGCACCAUUUCGCUGCCAGUGAAGAAAUGAACAAAGAAAACCUGGGCCAGGCAGGCAUCAAAAGAAAUAGUCUUGCGCUCAACCAGGAAGUCUGUAAUCAUUUUAAGGGUA [A23G U70C A116G] | 1.58
GUUAACGGUCGUAGGGCAUGGAAACUAGGAGCACCAUUCCGCUGACAGUGAAGAAAUGAACAAAGGAAAUCUGGGCCAGGCAGGCAUCAAAAGAAAUAGUCUUGCGCUCAUCCAGAAUGUCUGUAAUCAUUUUAAGGGUA [A11G C16G U39C C45A A66G A111U A118U] | 0.02
GUUAACGGUCAUAGGCCAUGGAAACUAGGAGCACCAUUUCGCUGCCAGUGAAGAAAUGAACAAAGAAAAUCUGGGCCAGGCGGGCAUCAAAAGGAAUAGUCUUGCGCACAACCAGAAAGUCUGUAAUCAUUUUAAGAGUA [A82G A94G U108A G137A] | 0.05
GUUAGCGGUCAUAGGCCAUGAAAACUAGGAGCACCAUUUCGCUGCCAGUGAAGAAAUGAACAAAGAAAAUCUGGGCCAGGCAGGCAUCAAAGGAAAUAGUCUUGCGCUCAACCAGAAAGUCUGUAAUCAUUUUAAGGGUA [A5G G21A A92G] | 1.24
GUUAACGGUCAUAGGCCAUGGAAACUAGGAGCACCAUUUCGCUGCCAGUGAAGAAAUAAACAAAGAAAAUCUGGGCUAGGCGGGCAUCAAAAGAAAUAGUCUUGCGCUCAACCAGGAAGUCUGUAAUCAUUUUAAGGGUA [G58A C77U A82G A116G] | 0.57
GUUAACGGUCAUAGGCCAUGGAAACUAGGAGCACCAUUUCGCUGCCAGUGAAGAAAUGAACAAAGAAAACCUGGGCCAGGCAGGCACCAAAAGAAAUAGUCUUGCGCUCAACCAGAGAGUCUGUAAUCAUUUUAAGGGUA [U70C U87C A117G] | 1.78
GUUAACGGUCAUUGGCCGUGGAAACUAGGAGCACCAUUUCGCUGCCAGUGAAGAAAUGAACAAAGAAAAUCUGGGCCAGGCAGGCAUCAAAAGAAAUAGUCUUGCGCUCAACCAGAGAGUCUGUAAUCAUUCUAAGGGUA [A13U A18G A117G U132C] | 1.53
GUUAACGGUCAUAGGCCAUGGAAACUAGGAGCACCGUUUCGCAGCCAGUGAAGAAAUGAACGAAGAAAAUCUGGGCCAGGCAGGCACCAAGAGAAAUAGUCUUGCGCUCAACCAGAAAGUCCGUAAUCUUUUUAAGGGUA [A36G U43A A62G U87C A91G U122C A129U] | 0.33
GUUAACGGUCACAGGCCAUGGAAACUAGGAGCACCAUUUCGCUGCCAGUGAAGAAAUGAACAAAGAAAAUCUGGGCCAGGCAGGCAUCAAAAGAAAUAGUCUUGCGCUCAACCAGAAAGACUGUAAUCAUUUUGAGGGUA [U12C U120A A134G] | 1.04
